Results: the supplement of paper PMC12340641
Over roughly 1,000 compounds, “relative growth recovery (pomalidomide 10 uM = 100%, DMSO = 0%)” has its median near -1.6; the highest 2% begin near 21. The list shows a part of the results.

Each compound was assayed on HEK293FT dCK*-IKZF1 (assay: relative growth recovery (pomalidomide 10 uM = 100%, DMSO = 0%); higher = more growth rescue (IKZF1 fusion degradation)). Conditions: compound concentration: 5 uM; AraC concentration: 0.3 uM; overnight pretreatment + 4 days AraC.
Procedure: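 Growth recovery screen of the molecular-glue-like (Specs) library. HEK293FT cells expressing a dCK*-IKZF1 fusion (primary) or dCK* alone (counter) were pretreated overnight with compound at 5 uM, then given 0.3 uM AraC for 4 days. Hoechst nuclei were counted by imaging. Primary: normalised to pomalidomide (100%) and DMSO (0%), mean of 2 replicates. Counter: normalised to no-AraC (100%) and AraC+DMSO (0%), single replicate.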

In order of rising relative growth recovery:
1. CC(=O)NC1(C(=O)N2CCC(c3cccc(Nc4ncc(C)s4)n3)CC2)CCCCC1  -20.7%
2. O=C(c1[nH]nc2c1CCCCC2)N1CCCC1c1cccc(Nc2nccs2)n1 (stereo not given)  -20.1%
3. Cc1cnc(Nc2cccc(C3CCN(C(=O)C4CCC(=O)N4)CC3)n2)s1 (stereo not given)  -19.4%
4. CCCc1cnc(Nc2cccc(C3CCN(C(=O)[C@@H](N)C(C)O)CC3)n2)s1 (stereo not given in full)  -18.6%
5. Cc1cnc(Nc2cccc(C3(C(N)=O)CCN(C(=O)C4CCCCC4)CC3)n2)s1  -18.2%
6. O=C(/C=C/c1ccccc1Cl)Nc1ccc(S(=O)(=O)Nc2ncccn2)cc1  -17.9%
7. COc1ccc(CC(=O)Nc2ccc(S(=O)(=O)Nc3nccc(C)n3)cc2)cc1  -17.5%
8. CCCc1cnc(Nc2cccc(C3CCN(C(=O)[C@@H]4CCCN4CCO)CC3)n2)s1  -17.4%
9. CCCc1cnc(Nc2cccc(C3CCN(C(=O)[C@@H]4CCCN4C(=O)OC(C)(C)C)CC3)n2)s1  -17.1%
10. Cc1ccc(CC(=O)Nc2ccc(S(=O)(=O)Nc3ncccn3)cc2)cc1  -14.8%
11. Cc1cnc(NC(=O)CN2CCC(c3cccc(Nc4ncc(C)s4)n3)CC2)s1  -13.8%
12. Cc1cnc(Nc2cccc(C3CCN(CC(=O)Nc4c(F)cccc4F)CC3)n2)s1  -13.4%
13. Cc1cc(C)nc(NS(=O)(=O)c2ccc(NC(=O)COc3c(C)cccc3C)cc2)n1  -12.1%
14. Cc1cc(C)c2[nH]c3nc(SCC(=O)Nc4ccc(Cl)cc4)nnc3c2c1  -11.9%
15. Cc1cnc(Nc2cccc(C3CCN(C(=O)C4CCCC4)CC3)n2)s1  -11%
16. COc1ccc(C(=O)Nc2ccc(S(=O)(=O)Nc3cc(C)nc(C)n3)cc2)cc1  -9.89%
17. COCC(=O)N1CCCC(Cc2ccc(Nc3ncc(-c4ccc(F)cc4)s3)nc2)C1 (stereo not given)  -9.28%
18. Cc1cnc(Nc2cccc(C3CN(C(=O)C4CCOC4)CCO3)n2)s1 (stereo not given)  -8.06%
19. Cc1cnc(Nc2cccc(C3CN(C(=O)Cn4ccnc4)CCO3)n2)s1 (stereo not given)  -7.95%
20. C[C@@]1(O)CNCC[C@H]1n1cnc2c(N)nc(N)nc21  -7.17%
21. CNC(=O)c1cnc(Nc2cccc(C3CCN(C(=O)C4CCCCC4)CC3)n2)s1  -7.04%
22. Cc1cnc(Nc2cccc(C3CN(C(=O)C4C5C6CCC(C6)C45)CCO3)n2)s1 (stereo not given)  -6.94%
23. Cc1cc(NS(=O)(=O)c2ccc(NC(=O)C3COc4ccccc4O3)cc2)nc(C)n1 (stereo not given)  -6.75%
24. Cc1cc(OCC(=O)Nc2ccc(S(=O)(=O)Nc3ccccn3)cc2)cc(C)c1Cl  -6.37%
25. CC(=O)N1CCCC(c2csc(Nc3ccc(C)cn3)n2)C1 (stereo not given)  -5.95%
26. CC(=O)Nc1ccc(S(=O)(=O)Nc2ccccn2)cc1  -5.84%
27. Cc1cc(NS(=O)(=O)c2ccc(NC(=O)c3ccc(C)c(C)c3)cc2)nc(C)n1  -5.74%
28. CCCN1CC(C(=O)N2CCC(c3cccc(Nc4ncc(C)s4)n3)CC2)CC1=O (stereo not given)  -5.35%
29. CCC(C)(C)C(=O)Nc1ccc(S(=O)(=O)Nc2ncccn2)cc1  -5.08%
30. COc1cc(OC)cc(C(=O)Nc2ccc(S(=O)(=O)Nc3ncccn3)cc2)c1  -4.95%
31. O=C(Nc1ccc(S(=O)(=O)Nc2ncccn2)cc1)c1cccc(Br)c1  -4.75%
32. O=C(COc1ccc(Cl)cc1Cl)Nc1ccc(S(=O)(=O)Nc2ncccn2)cc1  -4.71%
33. Cc1ccnc(NS(=O)(=O)c2ccc(NC(=O)COc3ccc(Cl)cc3)cc2)n1  -4%
34. Cc1ccc(C)c(OCC(=O)Nc2ccc(S(=O)(=O)Nc3ccccn3)cc2)c1C  -3.9%
35. CC1CCc2cc(F)ccc2N1C(=O)CSc1nnc2c(n1)[nH]c1ccccc12 (stereo not given)  -3.45%
36. Cc1ccc(S(=O)(=O)Nc2ccc(S(=O)(=O)Nc3ncccn3)cc2)cc1  -3.26%
37. CC(C)N(C(=O)CN1CCC(Cc2cccc(Nc3nccs3)n2)CC1)C1CCCCC1  -3.21%
38. Cc1cnc(Nc2cccc(CC3CCN(C(=O)Cn4c(CC(C)C)nc5ccccc54)CC3)n2)s1  -3.17%
39. O=C(C1CCCCC1)N1CCC(c2cccc(Nc3ncc(Cc4ccccc4)s3)n2)CC1  -3.1%
40. O=C(C1CCCCC1)N1CCOC(c2cccc(Nc3nccs3)n2)C1 (stereo not given)  -3.1%
41. Cc1cc(OCC(=O)Nc2ccc(S(=O)(=O)Nc3ncccn3)cc2)cc(C)c1Cl  -2.15%
42. CCCc1cnc(Nc2cccc(C3CCN(C(=O)Cn4c(CC(C)C)nc5ccccc54)CC3)n2)s1  -2.13%
43. Cc1cc(C)nc(NS(=O)(=O)c2ccc(NC(=O)c3ccccc3OC(C)C)cc2)n1  -2.05%
44. Nc1nc(N)c2ncn([C@@H]3CCC[C@@H](N)[C@H]3O)c2n1  -2.03%
45. COCC(C)NC(=O)CN1CCC(c2cccc(Nc3ncc(C)s3)n2)CC1 (stereo not given)  -1.86%
46. O=S(=O)(Nc1ncccn1)c1ccc(-n2cnnn2)cc1  -1.73%
47. Cc1cc(OCC(=O)Nc2ccc(S(=O)(=O)Nc3ccccn3)cc2)ccc1Cl  -1.66%
48. O=C(c1cccc2cccnc12)N1CCCC1c1cccc(Nc2nccs2)n1 (stereo not given)  -1.58%
49. O=C(Nc1ccc(S(=O)(=O)Nc2ccccn2)cc1)c1ccncc1  -1.46%
50. Cc1cc(C)nc(NS(=O)(=O)c2ccc(NC(=O)c3ccc(C)c(C)c3)cc2)n1  -1.41%
51. Cc1ccc(N2CC(C(=O)Nc3ccc(S(=O)(=O)Nc4ncccn4)cc3)CC2=O)cc1C (stereo not given)  -1.26%
52. O=C(C1CCCCC1)N1CCOC(c2cccc(Nc3ncc(Cc4ccc(F)cc4)s3)n2)C1 (stereo not given)  -1.23%
53. Cc1cc(NS(=O)(=O)c2ccc(NC(=O)c3oc4ccccc4c3C)cc2)nc(C)n1  -1.21%
54. CCCCc1cnc(Nc2cccc(C3CCN(C(=O)C(C)(C)NC(=O)COC)CC3)n2)s1  -1.08%
55. COc1cc(NS(=O)(=O)c2ccc(NC(=O)c3ccc([N+](=O)[O-])cc3)cc2)nc(OC)n1  -1.01%
56. O=C(CSc1nnc2c(n1)[nH]c1ccc(F)cc12)Nc1cccc(F)c1  -0.995%
57. Cc1nc(Nc2cccc(C3CCN(CC(=O)NCc4ccccn4)CC3)n2)sc1C  -0.91%
58. O=C(Nc1ccc(S(=O)(=O)Nc2ncccn2)cc1)C1COc2ccccc2O1 (stereo not given)  -0.865%
59. Cc1nc(Nc2cccc(C3CN(C(=O)CCc4c(C)n[nH]c4C)CCO3)n2)sc1C (stereo not given)  -0.835%
60. CCN(CC)C(=O)CN1CCC(c2cccc(Nc3nc(C)c(C)s3)n2)CC1  -0.815%
61. COc1ccc(OCC(=O)Nc2ccc(S(=O)(=O)Nc3ccccn3)cc2)cc1  -0.725%
62. COC(=O)C(c1cccc(Nc2ncc(C)s2)n1)C1CCN(C(=O)[C@H](CC(C)C)NC(=O)OC(C)(C)C)CC1 (stereo not given in full)  -0.715%
63. COc1cc(NS(=O)(=O)c2ccc(Nc3nc(-c4c(C)nc5ncccn45)cs3)cc2)nc(OC)n1  -0.58%
64. Cc1cnc(Nc2cccc(C(CO)C3CCN(C(=O)c4cccc(Cl)c4F)CC3)n2)s1 (stereo not given)  -0.545%
65. Cc1cc(C)c(OCC(=O)Nc2ccc(S(=O)(=O)Nc3nc(C)cc(C)n3)cc2)c(C)c1  -0.38%
66. O=S(=O)(Cc1ccccc1)Nc1ccc(S(=O)(=O)Nc2ncccn2)cc1  -0.185%
67. O=C1CCCN1CCOCC(=O)N1CCOC(c2cccc(Nc3nccs3)n2)C1 (stereo not given)  0.03%
68. Cc1cnc(Nc2ccc(C(=O)N3CCC=C(CCC(=O)NO)C3)cn2)s1  0.16%
69. COc1nccnc1NS(=O)(=O)c1ccc(NC(=S)NC(=O)/C=C/c2cccs2)cc1  0.23%
70. O=C(Nc1ccc(S(=O)(=O)Nc2ccccn2)cc1)c1cccnc1  0.275%
71. Cc1ccc(Nc2nc(C3CCCN3C(=O)/C=C/c3csc(C)n3)cs2)nc1 (stereo not given)  0.31%
72. Cc1cc(C)nc(NS(=O)(=O)c2ccc(NCc3cc(Cl)ccc3O)cc2)n1  0.815%
73. O=C(C1CCCCC1)N1CCOC(c2cccc(Nc3ncc(Cc4ccccc4Cl)s3)n2)C1 (stereo not given)  1.11%
74. O=S(=O)(Nc1ccc(S(=O)(=O)Nc2ncccn2)cc1)c1ccc(F)cc1  1.11%
75. Cc1cc(C)nc(NS(=O)(=O)c2ccc(NC(=O)C34CC5CC(CC(C5)C3)C4)cc2)n1  1.28%
76. Cc1cccc(OCCCC(=O)Nc2ccc(S(=O)(=O)Nc3ncccn3)cc2)c1  1.47%
77. CNC(=O)C(c1cccc(Nc2ncc(C)s2)n1)C1CCN(C(=O)C2CCCCC2)CC1 (stereo not given)  1.55%
78. O=C1CCC(N2C(=O)c3cccc(N4CCN(C5CCC(C(=O)O)CC5)CC4)c3C2=O)C(=O)N1 (stereo not given)  1.55%
79. COc1cc(NS(=O)(=O)c2ccc(NC(=O)COc3ccc(C)cc3)cc2)nc(OC)n1  1.75%
80. Cc1cnc(Nc2cccc(C3CCN(C(=O)C4CCN(C(C)C)CC4)CC3)n2)s1  2.37%
81. Cc1cc(C)nc(NS(=O)(=O)c2ccc(NC(=O)/C=C/c3ccccc3)cc2)n1  2.52%
82. O=C(C1CNCCO1)N1CCC(c2cccc(Nc3ncc(-c4ccccc4)s3)n2)CC1 (stereo not given)  2.58%
83. CC(C)CC(=O)N1CCCC1c1csc(Nc2ccccn2)n1 (stereo not given)  2.83%
84. CCC(=O)Nc1ccc(S(=O)(=O)Nc2ncccn2)cc1  3.52%
85. CCN(CC)C(=O)CN1CCC(c2cccc(Nc3nccs3)n2)CC1  3.58%
86. Cc1ccc(Cl)cc1NC(=O)CSc1nnc2c(n1)[nH]c1c(C)ccc(C)c12  4.4%
87. O=C(CSc1nc2ccccc2n1Cc1ccccc1)Nc1ccccn1  5.77%
88. Cc1nc(Nc2cccc(C3CCCN3C(=O)CN3C(=O)NC(C)(C)C3=O)n2)sc1C (stereo not given)  6.9%
89. Cc1cnc(Nc2cccc(C3CCCN3C(=O)CCc3cccc(Cl)c3)n2)s1 (stereo not given)  8.7%
90. Cc1cc(OCC(=O)Nc2ccc(S(=O)(=O)Nc3ncccn3)cc2)ccc1C(C)C  9.55%
91. COc1ccccc1CCC(=O)N1CCOC(c2cccc(Nc3ncc(C)s3)n2)C1 (stereo not given)  10.8%
92. Cc1nc(Nc2cccc(C3CCN(C(=O)c4n[nH]c5c4CCCC5)CC3)n2)sc1C  12.1%
93. Cc1csc(Nc2cccc(C3CN(C(=O)CCCc4ccc(F)cc4)CCO3)n2)n1 (stereo not given)  25.2%
94. O=C(/C=C/c1ccccc1)N1CCCC(c2csc(Nc3ccccn3)n2)C1 (stereo not given)  31.2%
95. Cc1ccn2cc(C(=O)N3CCCC3c3cccc(Nc4nc(C)c(C)s4)n3)nc2c1 (stereo not given)  39.7%
